Assay results published in the supplement of paper PMC12217912.
Some of the results follow. Sequences were assembled here from the parent chain. Inactive controls read about 0.05.

B1: TEV protease; numbered along this chain (parent)
chain: MGESLFKGPRDYNPISSSICHLTNESDGHTTSLYGIGFGPFIITNKHLFRRNNGTLVVQSLHGVFKVKDTTTLQQHLVDGRDMIIIRMPKDFPPFPQKLKFREPQREERICLVTTNFQTKSMSSMVSDTSCTFPSGDGIFWKHWIQTKDGQCGSPLVSTRDGFIVGIHSASNFTNTNNYFTSVPKNFMELLTNQEAQQWVSGWRLNADSVLWGGHKVFMVKPEEPFQPVKEATQL

Variants of: B1
Test: raw area under fraction-flipped curve 0-4 h after induction (AUC4h, not background-subtracted), DNA-recorder readout of cleavage of the substrate (dimensionless); higher = more cleavage of the substrate by the protease variant
Settings: temperature: 34 °C; time window: 0-4 h after rhamnose induction
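Also: Bxb1 expression induced with 0.2% (w/v) L-rhamnose at OD600 near 0.5, cultures sampled hourly, flipped fraction per protease–substrate barcode pair counted by paired-end Illumina sequencing.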

| Variant | area with substrate ENLYFDS | area with substrate ENLYFFS | area with substrate ENLYFRS | area with substrate ENLYFHS | area with substrate ENLYFIS | area with substrate ENLYFKS | area with substrate ENLYFLS | area with substrate ENLYFMS | area with substrate ENLYFNS | area with substrate ENLYFPS | area with substrate ENLYFSS | area with substrate ENLYFTS | area with substrate ENLYFVS | area with substrate ENLYFWS | area with substrate ENLYFYS | area with substrate ENLYFCS | area with substrate ENLYFES | area with substrate ENLYFGS |
| --- | --- | --- | --- | --- | --- | --- | --- | --- | --- | --- | --- | --- | --- | --- | --- | --- | --- | --- |
| N178I | 0.0624 | 0.0664 | 0.0619 |  |  |  |  |  |  |  |  |  |  |  |  |  |  |  |
| V113H | 0.0573 | 0.0677 | 0.0603 | 0.0496 | 0.0663 | 0.0577 | 0.066 | 0.0719 | 0.062 | 0.0516 | 0.0743 | 0.0697 | 0.0112 | 0.0444 | 0.0564 |  |  |  |
| N193P | 0.0575 |  | 0.065 |  | 0.0658 | 0.0678 |  | 0.0681 | 0.0655 | 0.0474 | 0.055 | 0.0676 |  | 0.0742 |  | 0.0539 | 0.0609 | 0.0662 |
| N52F | 0.0583 | 0.0811 |  | 0.0683 | 0.0538 | 0.0722 | 0.0702 | 0.0567 | 0.065 | 0.0537 | 0.0615 | 0.056 | 0.0511 | 0.0561 | 0.0605 |  |  | 0.0752 |
| N52M |  | 0.0765 |  | 0.0533 | 0.0405 |  |  | 0.0623 | 0.0448 |  |  | 0.0466 |  |  |  |  | 0.0558 | 0.081 |
| N52T | 0.0555 | 0.0655 | 0.0517 |  | 0.0605 | 0.0631 | 0.0509 | 0.0657 | 0.0718 | 0.0577 | 0.0461 |  |  | 0.09 | 0.0575 |  | 0.0546 |  |
| K120L |  |  | 0.0599 | 0.0426 |  |  |  | 0.0562 |  |  |  | 0.066 |  |  |  | 0.0455 |  |  |
| G153Y |  | 0.0356 |  | 0.0498 | 0.0536 |  |  |  | 0.0671 | 0.0522 |  | 0.0443 |  |  | 0.0477 | 0.0482 | 0.0569 |  |
| E189D |  | 0.0568 |  | 0.0667 | 0.067 |  |  | 0.0794 | 0.0679 |  | 0.0631 |  | 0.0338 | 0.0754 | 0.0504 | 0.0937 | 0.0706 | 0.066 |
| E189I | 0.0531 |  | 0.0627 | 0.0811 |  |  |  |  | 0.0766 | 0.0619 |  | 0.0747 | 0.0969 | 0.0515 | 0.0577 |  |  | 0.0617 |
| V57T |  | 0.0587 | 0.0703 |  | 0.0586 |  |  | 0.0646 | 0.0567 | 0.0662 | 0.0542 | 0.063 | 0.0791 | 0.0592 | 0.0448 |  | 0.031 | 0.052 |
| S121A | 0.0459 | 0.073 |  |  | 0.0528 |  | 0.0736 | 0.0646 |  | 0.0573 | 0.058 | 0.0686 | 0.0688 | 0.0497 |  |  | 0.0662 |  |
| G213A |  | 0.063 | 0.0563 | 0.0487 | 0.0563 | 0.0654 | 0.039 | 0.0603 | 0.0663 | 0.0485 | 0.0579 | 0.059 | 0.0606 |  | 0.0576 | 0.0512 | 0.0532 | 0.0551 |
| G213Y | 0.0655 |  | 0.0605 |  | 0.0533 |  |  | 0.0567 | 0.0617 | 0.043 | 0.0584 | 0.0645 | 0.0128 | 0.0572 |  | 0.0648 | 0.0633 | 0.0706 |
| P155E |  |  | 0.0524 | 0.0611 | 0.0535 | 0.0665 |  |  | 0.073 | 0.0454 |  | 0.0368 |  | 0.0488 |  | 0.0469 | 0.0449 | 0.054 |
| P155F | 0.044 | 0.0657 | 0.0376 | 0.048 | 0.0474 | 0.0709 | 0.0621 | 0.0513 |  | 0.0558 | 0.0517 | 0.0611 | 0.0523 | 0.0482 |  | 0.0417 | 0.0638 |  |
| G136P | 0.0627 | 0.0256 | 0.0862 | 0.0511 |  |  |  | 0.0596 |  |  |  | 0.0604 |  |  | 0.06 |  | 0.0752 |  |
| P94Y | 0.0518 | 0.0775 |  |  | 0.0548 | 0.0591 | 0.055 | 0.0657 |  | 0.0548 | 0.0447 | 0.0539 |  |  | 0.0683 |  | 0.0833 |  |
| T233D | 0.068 |  | 0.0624 |  | 0.0432 | 0.072 | 0.0632 | 0.0646 | 0.0605 |  |  |  |  | 0.0322 |  | 0.0573 | 0.0635 |  |
| R10L |  | 0.07 |  | 0.0582 |  |  |  |  |  | 0.0551 | 0.0618 | 0.0662 |  |  | 0.047 |  | 0.0687 | 0.0507 |
| V165D |  | 0.0649 | 0.0496 | 0.0551 | 0.0536 |  | 0.0589 |  |  | 0.0629 | 0.0324 |  |  |  | 0.0377 | 0.0545 | 0.0471 |  |
| R204E |  |  |  | 0.0689 | 0.0631 | 0.0646 | 0.0612 | 0.0697 | 0.071 | 0.0427 |  | 0.0465 | 0.0545 |  |  | 0.0754 |  |  |
| W203R | 0.0464 | 0.0551 |  | 0.051 | 0.0532 |  |  | 0.0383 | 0.0448 |  | 0.0578 | 0.0578 | 0.0591 | 0.0678 |  |  | 0.0661 | 0.0659 |
| K216L |  |  | 0.0848 |  | 0.0665 |  | 0.0665 | 0.0767 | 0.0875 | 0.0616 |  | 0.0584 | 0.059 |  |  | 0.054 |  |  |
| T192D | 0.0697 |  | 0.0605 |  | 0.0439 | 0.0573 |  | 0.0565 | 0.0579 |  | 0.0423 | 0.069 |  | 0.068 |  | 0.0411 |  | 0.0828 |
| Q118H |  | 0.0581 | 0.0338 |  | 0.0573 | 0.0592 |  | 0.0564 | 0.0705 | 0.0697 |  | 0.0717 |  | 0.0528 |  | 0.0694 | 0.078 |  |
| Q118N | 0.0442 | 0.069 | 0.0662 |  | 0.0638 |  | 0.0618 | 0.0453 |  |  | 0.067 |  | 0.0588 | 0.0516 | 0.0521 | 0.0536 | 0.0526 | 0.0603 |
| K148T | 0.0661 | 0.0689 | 0.0882 |  | 0.0528 |  |  | 0.0614 | 0.0516 |  |  | 0.0623 | 0.0605 | 0.0581 |  | 0.0568 | 0.0375 | 0.0412 |
| R160A | 0.0262 | 0.0674 |  | 0.0537 | 0.0561 | 0.0569 |  | 0.0661 | 0.0561 | 0.0457 | 0.0658 |  | 0.0732 | 0.0582 |  | 0.0724 | 0.0741 | 0.064 |
| N24K | 0.0647 | 0.0656 | 0.0599 | 0.0372 | 0.0592 | 0.0732 | 0.0503 | 0.0613 | 0.0612 | 0.0624 |  | 0.0574 | 0.0658 | 0.0469 | 0.0517 |  | 0.0591 |  |
